Tests used:
[1] = target: T1, human platelet GPIbα (His1 to Arg290) (human, UniProt P07359 17-306); assay: optical tweezers, force clamp at 10.05 pN on the tethered A1-GPIbα polypeptide; fast phase of the survival probability versus dwell time
T1 construct: range 1-290; The numbers 1-290 probably count on the mature protein, not on the precursor entry; also called GP1bα; GP1bα subunit

[2] = target: T1, human platelet GPIbα (His1 to Arg290); assay: optical tweezers, force clamp at 10.05 pN on the tethered A1-GPIbα polypeptide; slow phase of the survival probability versus dwell time
[3] = target: T1, human platelet GPIbα (His1 to Arg290); assay: optical tweezers, force clamp at 10.27 pN on the tethered A1-GPIbα polypeptide; fast phase of the survival probability versus dwell time
[4] = target: T1, human platelet GPIbα (His1 to Arg290); assay: optical tweezers, force clamp at 10.27 pN on the tethered A1-GPIbα polypeptide; slow phase of the survival probability versus dwell time
[5] = target: T1, human platelet GPIbα (His1 to Arg290); assay: optical tweezers on the tethered A1-GPIbα polypeptide in the presence of botrocetin; zero-force off-rate extrapolated from bond lifetime versus force
[6] = target: T1, human platelet GPIbα (His1 to Arg290); assay: optical tweezers on the tethered A1-GPIbα polypeptide in the presence of ristocetin; zero-force off-rate of state 1 extrapolated from bond lifetime versus force
[7] = target: T1, human platelet GPIbα (His1 to Arg290); assay: optical tweezers on the tethered A1-GPIbα polypeptide in the presence of ristocetin; zero-force off-rate of state 2 extrapolated from bond lifetime versus force

T1 sequence (P07359 17-306 limits assumed): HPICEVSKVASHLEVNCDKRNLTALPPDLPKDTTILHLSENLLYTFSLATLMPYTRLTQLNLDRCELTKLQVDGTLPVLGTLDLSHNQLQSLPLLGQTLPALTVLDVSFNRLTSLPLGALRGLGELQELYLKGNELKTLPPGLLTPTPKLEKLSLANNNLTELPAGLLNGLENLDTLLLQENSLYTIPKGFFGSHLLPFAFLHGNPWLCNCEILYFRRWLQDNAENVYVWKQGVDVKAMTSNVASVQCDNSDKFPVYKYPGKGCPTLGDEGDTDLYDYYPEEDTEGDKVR

B1: human VWF A1 domain ([…] with pre-pro-VWF numbering) (receptor)
chain: not shown
notes: range […]; In the assay this domain was not a free protein; It was expressed in HEK293T cells and coupled by disulfides to dsDNA handles; also called von Willebrand factor A1 domain
With B1 the koff [1] was 1.44 s⁻¹, the koff [2] was 0.14 s⁻¹ and the koff [3] was 1.33 s⁻¹. The koff [4] was 0.33 s⁻¹, the koff [5] was 0.00041 s⁻¹ and the koff [6] was 0.034 s⁻¹. For the same binder, the koff [7] was 0.0017 s⁻¹.
